# Patent publication US20190083612A1 (RINAT NEUROSCIENCE, published 2019)
# Several values for one entry are separate records, joined by “and”; a condition that tells them apart may be missing. Identical values can stand only once.
# B1: mAb7 (human IgG4 kappa, hinge stabilized) (antibody)
# heavy: QVQLVQSGAEVKKPGASVKVSCKASGYTFTSYWINWVRQAPGQGLEWMGNIYPGSSLTNYNEKFKNRVTMTRDTSTSTVYMELSSLRSEDTAVYYCARLSTGTFAYWGQGTLVTVSSASTKGPSVFPLAPCSRSTSESTAALGCLVKDYFPEPVTVSWNSGALTSGVHTFPAVLQSSGLYSLSSVVTVPSSSLGTKTYTCNVDHKPSNTKVDKRV[human IgG4 Fc with S228P (EU numbers) skipped]
# light: DIVMTQSPDSLAVSLGERATINCKSSQSLWDSGNQKNFLTWYQQKPGQPPKLLIYWTSYRESGVPDRFSGSGSGTDFTLTISSLQAEDVAVYYCQNDYFYPHTFGGGTKVEIKRGTVAAPSVFIFPPSDEQLKSGTASVVCLLNNFYPREAKVQWKVDNALQSGNSQESVTEQDSKDSTYSLSSTLTLSKADYEKHKVYACEVTHQGLSSPVTKSFNRGEC
# notes: also called mAb7-G4; mAb7 (G4); copies: 2 + 2
# Key:
# [1] = biological target: T1, cynomolgus monkey-PD-1 (His-tagged monomer) (cynomolgus monkey, UniProt B0LAJ3 25-170); experiment: SPR (ProteOn NLC chip), 25 C, n 10
# [2] = biological target: T2, human PD-1 (hPD-1) monomer (human, UniProt Q15116 part only); experiment: SPR (ProteOn), hPD-1 monomer over amine-coupled IgG, 25 C; N = 2
# T2 construct: also called hu-PD-1; not shown: His tag (His-tagged monomer)
# Description: (§1) All interaction analysis was performed on label-free biosensors at 25° C. unless stated otherwise. Surface plasmon resonance biosensors (ProteOn-XPR™ from BioRad™, and Biacore 2000™ and Biacore T200™ from GE Life Sciences) were used to study human and cynomolgus monkey PD-1 and a biolayer interferometry biosensor (Octet-Red384, Fortebio/Pall Life Sciences) was used to study mouse PD-1. ProteOn experiments were performed in PBS pH 7.4+0.01% Tween-20 (PBST) running buffer. Biacore experiments were performed in 10 mM Hepes pH 7.4, 150 mM NaCl, 0.05% Tween-20 (HBST+) and Octet experiments were performed in HBST+ with 1 g/l BSA. The ProteOn data were processed in the ProteOn Manager software, the Biacore data were processed in Biaevaluation, and the Octet data were simply aligned to zero in the control software.
# The surfaces for these experiments were prepared in three steps; (1) the ligand channels were minimally activated for two min using a freshly prepared mixture of the activation reagents at final 0.8 mM EDC and 0.2 mM sulfo-NHS in water, (2) the IgGs were coupled for three min at 15 μg/ml in 10 mM sodium acetate pH 4.5, and (3) excess reactive esters were blocked for three min with 1 M ethanolamine HCl pH 8.5. […] Association and dissociation times were 3 min and 20 min, respectively and all analytes were injected in duplicate binding cycles. […]
# [3] = biological target: T3, human PD-1 on primary human T cells (human, UniProt Q15116 25-288); experiment: FACS, activated primary human T cells, average ± sem
# T3 construct: Endogenous PD-1 of donor T cells; also called hu-PD-1; PD-1 on human T cells
# [4] = biological target: T3, human PD-1 on primary human T cells; experiment: FACS, activated primary human T cells, individual 1
# [5] = biological target: T3, human PD-1 on primary human T cells; experiment: FACS, blockade of PD-L1 Fc binding to PD-1 on activated human T cells
# [6] = biological target: T4, cynomolgus monkey PD-1 on primary cynomolgus monkey T cells (cynomolgus monkey, UniProt B0LAJ3 25-288); experiment: FACS, activated primary cynomolgus monkey T cells, average ± sem
# T4 construct: also called PD-1 on cyno T cells
# [7] = biological target: T2, human PD-1 (hPD-1) monomer; experiment: SPR (ProteOn), hPD-1 monomer over amine-coupled IgG, 25 C; 5% rule
# Description: The surfaces for these experiments were prepared in three steps; (1) the ligand channels were minimally activated for two min using a freshly prepared mixture of the activation reagents at final 0.8 mM EDC and 0.2 mM sulfo-NHS in water, (2) the IgGs were coupled for three min at 15 μg/ml in 10 mM sodium acetate pH 4.5, and (3) excess reactive esters were blocked for three min with 1 M ethanolamine HCl pH 8.5. […] Association and dissociation times were 3 min and 20 min, respectively and all analytes were injected in duplicate binding cycles. Surfaces were regenerated with a cocktail of 2:1 v/v Pierce IgG elution buffer (pH 2.8):4 M NaCl.
# N=2 refers to two independent experiments on different chips.
# [8] = biological target: T5, cynomolgus monkey PD-1 on stably transfected Jurkat cells (cynomolgus monkey); experiment: FACS, Jurkat/cynomolgus monkey-PD-1, repeat 1
# T5 construct: whole, on cells; also called Jurkat/Cynomolgus Monkey-PD-1; Cynomolgus Monkey-PD-1/Jurkat
# [9] = biological target: T4, cynomolgus monkey PD-1 on primary …; experiment: FACS, blockade of PD-L1 Fc binding to PD-1 on activated cyno T cells
# [10] = biological target: T5, cynomolgus monkey PD-1 on stably …; experiment: FACS, blockade of cyno PD-L1 on cyno-PD-1/Jurkat, average ± sem
# [11] = biological target: T3, human PD-1 on primary human T cells; experiment: flow cytometry on primary human T cells activated 3 days with CD3/CD28 beads; APC-labelled anti-human IgG F(ab')2 secondary; geometric mean of fluorescence
# [12] = biological target: T5, cynomolgus monkey PD-1 on stably …; experiment: FACS, blockade of cyno PD-L2 (20 µg/mL) on cyno-PD-1/Jurkat, repeat 1
# [13] = biological target: T4, cynomolgus monkey PD-1 on primary …; experiment: FACS, activated primary cynomolgus monkey T cells, individual 2
# [14] = biological target: T6, human PD-1 on stably transfected Jurkat cells (human, UniProt Q15116 25-288); experiment: FACS, blockade of biotinylated hu-PD-L2 (20 µg/mL) on human-PD-1/Jurkat, repeat 2
# T6 construct: also called Jurkat/Human-PD-1; Human-PD-1/Jurkat
# [15] = biological target: T1, cynomolgus monkey-PD-1 (His-tagged …); experiment: KinExA in solution, 23 C, PD-1 titrated; 95% confidence interval (34-23), n 4
# [16] = biological target: T6, human PD-1 on stably transfected Jurkat …; experiment: FACS, blockade of biotinylated hu-PD-L1 (20 µg/mL) on human-PD-1/Jurkat, repeat 2
# [17] = biological target: T3, human PD-1 on primary human T cells; experiment: cell-based or functional assay
# [18] = biological target: T2, human PD-1 (hPD-1) monomer; experiment: SPR (Biacore T200), hPD-1 monomer over anti-hFc-captured hIgG4, 25 C
# Description: as §1
# The hPD-1 was injected at active concentrations of 0, 10, and 100 nM for three minutes allowing an 18-min dissociation phase. The capture surfaces were regenerated with 75 mM phosphoric acid after each binding cycle.
# [19] = biological target: T7, human C1q (complement component 1, q subcomponent) (human, UniProt P02745; P02746; P02747); experiment: not described at this place
# T7 construct: also called hu-C1q
# [20] = biological target: T3, human PD-1 on primary human T cells; experiment: FACS, activated primary human T cells, individual 2
# T3 sequence (Q15116 25-288 limits assumed): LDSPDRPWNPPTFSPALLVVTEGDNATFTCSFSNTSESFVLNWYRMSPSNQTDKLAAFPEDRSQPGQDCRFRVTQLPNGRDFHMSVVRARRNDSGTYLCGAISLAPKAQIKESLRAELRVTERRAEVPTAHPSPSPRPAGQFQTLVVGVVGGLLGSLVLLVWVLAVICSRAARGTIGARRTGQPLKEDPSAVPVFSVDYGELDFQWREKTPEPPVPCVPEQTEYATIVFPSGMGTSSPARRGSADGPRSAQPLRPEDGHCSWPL
# T2 sequence (Q15116 25-167 limits assumed): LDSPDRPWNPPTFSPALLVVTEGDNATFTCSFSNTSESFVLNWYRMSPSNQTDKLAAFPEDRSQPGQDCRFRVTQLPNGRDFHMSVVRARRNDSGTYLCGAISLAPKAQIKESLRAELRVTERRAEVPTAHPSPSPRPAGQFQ
# T7 sequence (P02745 23-245 limits assumed, chain 1 of 3): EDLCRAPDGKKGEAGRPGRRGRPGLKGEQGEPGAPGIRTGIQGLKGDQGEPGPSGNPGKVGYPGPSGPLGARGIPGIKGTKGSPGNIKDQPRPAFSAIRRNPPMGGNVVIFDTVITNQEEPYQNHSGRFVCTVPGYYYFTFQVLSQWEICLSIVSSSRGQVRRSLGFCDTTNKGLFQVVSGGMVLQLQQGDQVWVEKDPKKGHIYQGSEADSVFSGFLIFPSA
# T7 sequence (P02746 28-253 limits assumed, chain 2 of 3, further chain): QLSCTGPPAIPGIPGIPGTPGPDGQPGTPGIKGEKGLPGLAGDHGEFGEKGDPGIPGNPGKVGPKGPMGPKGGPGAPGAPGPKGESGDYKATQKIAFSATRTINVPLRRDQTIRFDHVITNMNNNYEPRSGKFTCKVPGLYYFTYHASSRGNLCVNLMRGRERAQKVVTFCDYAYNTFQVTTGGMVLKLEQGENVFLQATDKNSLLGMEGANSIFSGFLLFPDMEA
# T7 sequence (P02747 29-245 limits assumed, chain 3 of 3, further chain): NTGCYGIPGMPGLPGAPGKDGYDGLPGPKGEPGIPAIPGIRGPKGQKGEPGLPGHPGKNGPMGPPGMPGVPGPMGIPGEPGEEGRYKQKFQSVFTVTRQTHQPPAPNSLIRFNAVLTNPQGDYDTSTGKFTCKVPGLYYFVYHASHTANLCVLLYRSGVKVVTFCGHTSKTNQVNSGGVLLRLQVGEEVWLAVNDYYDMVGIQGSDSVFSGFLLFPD
binder,measurement,setting,value
B1,Kd,[1],0.069 nM
same,koff,[1],2.9e-05 s⁻¹
same,kon,[1],430000 M⁻¹ s⁻¹
same,Kd,[2],< 0.094 nM
same,kon,[2],453000 M⁻¹ s⁻¹ and 445000 M⁻¹ s⁻¹
same,EC50,[3],0.051 nM
same,EC50,[4],0.0459 nM
same,IC50,[5],1.12 nM
same,EC50,[6],0.0853 nM
same,koff,[7],< 4.3e-05 s⁻¹
same,EC50,[8],0.181 nM
same,IC50,[9],0.92 nM
same,IC50,[10],0.943 nM
same,EC50 (read off the curve),[11],~0.2 nM
same,IC50,[12],0.75 nM
same,EC50,[13],0.0971 nM
same,IC50,[14],1.41 nM
same,Kd,[15],0.028 nM
same,IC50,[16],1.17 nM
same,"IFN-γ level, human MLR with DCs expressing PD-L1, compared to negative control antibody",[17],≤ 8 fold
same,"IFN-γ secretion, human MLR with JeKo 1 PD-L1 cells, compared to negative control antibody",[17],≤ 2.5 fold
same,"IL-2 secretion, human MLR with JeKo 1 PD-L1 cells, compared to negative control antibody",[17],≤ 5 fold
same,"T-cell proliferation, human MLR with DCs expressing PD-L1, 10 µg/mL, over negative control antibody",[17],≤ 2.5 fold
same,"TNF-α level, human MLR with DCs expressing PD-L1, compared to negative control antibody",[17],≤ 5 fold
same,"TNF-α secretion, human MLR with JeKo 1 PD-L1 cells, compared to negative control antibody",[17],≤ 2 fold
same,Kd,[18],0.73 nM
same,koff,[18],0.000173 s⁻¹
same,kon,[18],237000 M⁻¹ s⁻¹
same,binding result,[19],binds
same,EC50,[20],0.0561 nM
